# Results: PMC12136788
# The other results are listed elsewhere or left out.
# B1: chr4:115894766:115894767:+_ENSMUSG00000028698_ENSMUST00000030464|mus_hu|mus_mus_mus_hu_True|48_48 (ssRNA)
# RNA: GGGAGUUCUACAGUCCGACGAUCUUCCACACGGAAAUGUACUUCGGGUUUUCCAACGGCCAGUACCAGUCCGGCCAAACUACCCGAUGAGGACAAGCCCCCUCUCUCCUACAGAACACAACAAAAUGCCCCCGAACUUUCAAGCAACAGAGGAUUGAGCAUCA
# B2: chr1:58468927:58468928:-_ENSMUSG00000026034_ENSMUST00000148330|mus_mus|mus_mus_mus_hu_False|88_108 (ssRNA)
# RNA: GGGAGUUCUACAGUCCGACGAUCAAUCUAUAAUUACGAUGUUCAUUUAUUUGGUUUUGUACUUAAUGAACCAAAUUACCCAAACAAAAUAAACAUGGCAAUAUAAAAAUGUUAAGAAUUUACAAAGCUGUACAAAAUAACUUACAACAGAGGAUUGAGCAUCA
# B3: chrX:70926549:70926550:+_ENSMUSG00000019558_ENSMUST00000114465|mus_hu|FALSE|FALSE (ssRNA)
# RNA: GGGAGUUCUACAGUCCGACGAUCGGCAGACCCCAAAAGUGUCAGGGAAAGGCAGGCCCCCUGGAGGGGUGCGGUGGGGCUGAAGCAGGGGCUGCUAUGGCUACCAGAGGUGAGCUGGUGAUGUGAGCUGAGUUGUCACAUGACCAACAGAGGAUUGAGCAUCA
# B4: chr12:105536279:105536280:+_ENSG00000136051_ENST00000332180|hu_mus|hu_hu_hu_mus_True|48_48 (ssRNA)
# RNA: GGGAGUUCUACAGUCCGACGAUCAGCACUGAACAUGUAAUGUAAUCUGGCUGCAUCGACAGCAUUUUCAUAUACAUCAUCUAAAUAAAUUGGGAAGACAGCGCGAUGCCAGUAUAAAAAACAGCAGUCACACUGUGCUUGGACCAACAGAGGAUUGAGCAUCA
# B5: chr15:79189586:79189587:+_ENSG00000185787_ENST00000426013|hu_mus|FALSE|FALSE (ssRNA)
# RNA: GGGAGUUCUACAGUCCGACGAUCGUCCGUCACUGAUACACUGGUAGAAACUUUGAAAUGAAAAAAGGAAGAAAAAAGGAGCAGUUACUCCUUUUAUUUUCUCUGUUUAAAAUCAAAGAGGAAACAAACAACUCUGUUAUACACCAACAGAGGAUUGAGCAUCA
# B6: chr3:179052105:179052106:+_ENSG00000121864_ENST00000484866|hu_hu|FALSE|FALSE (ssRNA)
# RNA: GGGAGUUCUACAGUCCGACGAUCUCCAAACCUCAUCAAGCAGUCACUACAUUUAUGAGGCAAGUCAGCUGAAUGCUUGAAAUCUAGAUGAAUUUUAAGAUCUUCAAUUUGUCCUGUUGAAUAUUCACAAUAUUGACAUAAAUACAACAGAGGAUUGAGCAUCA
# B7: 62013551_62021495_69_CDS_ENSMUSG00000066151_ENSMUST00000084527|mouse|control|control (ssRNA)
# RNA: GGGAGUUCUACAGUCCGACGAUCCAGUCCAAAAAGAGAAGCCAGCUUAGCUCCGCCGCUUGGCGAGAGGAAGUCGGUGUCAUCCUCGUCUCCGGCACCGAACAUCACGUCGGCUUUCGCCCAGCUGAAGGGAGGAGGAAGUUGCAACAGAGGAUUGAGCAUCA
# B8: chr12:493273:493274:-_ENSG00000073614_ENST00000399788|hu_mus|hu_hu_hu_mus_False|38_48 (ssRNA)
# RNA: GGGAGUUCUACAGUCCGACGAUCUUUUCUCUCCACCACAGGGAUCUUCAAUGUAGAUCCUUGAAGUUCCCAAAAUUUUGCCAGUUGAUCCAAGAAAUCCAAUCUCACUCUAGUCAUUGCCUCAAGUUCAUUCAGGCGCUGGACCAACAGAGGAUUGAGCAUCA
# B9: 45143715_45143835_1109_CDS_ENSG00000136270_ENST00000258770|human|control|control (ssRNA)
# RNA: GGGAGUUCUACAGUCCGACGAUCCAGGGGCAGGCUGAGCCACUUGAGUAAGGCGAAGGACUUGGCACAGUGGGCCACCUCACCAGAAGUCAGGCUGGGCAUGAGGGAUAGCAGGUCGGUGGCCAGGCGCUGGGACACCUGGGUCAACAGAGGAUUGAGCAUCA
# B10: chr1:220276048:220276049:+_ENSG00000067704_ENST00000302637|hu_hu|hu_hu_hu_mus_True|1_1 (ssRNA)
# RNA: GGGAGUUCUACAGUCCGACGAUCGCAAAUUGCCUGGUUGGCGGGAAUUGUCCAAGGCUGGGUGGUCCAAACUAAAACGCUAACAGGGGAUGAGGCAUCUGUAAGAGACUCCAACUUCGGAGGAGGUCUCAGGAGGGGAAAUUUCAACAGAGGAUUGAGCAUCA
# B11: chr2:47387936:47387937:-_ENSG00000143933_ENST00000272298|hu_mus|FALSE|FALSE (ssRNA)
# RNA: GGGAGUUCUACAGUCCGACGAUCUACAAGAAAUUUAACACAUUCUGUACAAUGUCUUCACUUCGCUGUCAUCAUUUGUACAAACUCUUCGUAGUUUACCUGACCGUCCCCGUCAAUGUCUGCUUCCCUGAUCAUCUCAUCGACCAACAGAGGAUUGAGCAUCA
# B12: chr7:30948173:30948174:-_ENSMUSG00000037029_ENSMUST00000062181|mus_mus|motif|central (ssRNA)
# RNA: GGGAGUUCUACAGUCCGACGAUCGGAGGACUUCCAACUGUAUAAAGCAGAGGAUGUGUUCCCAUACAACUGUUUAAAUCGGAACGGUGUUUCAAGCUCAAAACUUUAAGCUUUGAACAAUGUUUUGCCUUUUAAAAAUUGAAGCAACAGAGGAUUGAGCAUCA
# B13: 105956041_105956161_390_3pUTR_ENSG00000135974_ENST00000258457|human|control|control (ssRNA)
# RNA: GGGAGUUCUACAGUCCGACGAUCAUCAUUUUCCCCCAUCUAUUCUUCGGCAAAUCCCUCUGAGGCAAUGGUAUUGCAUGUUGGACAUAAAGGUCAGUAAGACUGUCUUUGUUUACUCUUACAUCAGUUUCAACAGCUAUGUUCCAACAGAGGAUUGAGCAUCA
# B14: chr5:134235298:134235299:+_ENSG00000113621_ENST00000507024|hu_hu|FALSE|FALSE (ssRNA)
# RNA: GGGAGUUCUACAGUCCGACGAUCUGUCCUGGAAUUAGCCACCGAAUACUCUCAGUUCGAAUGGUAGCAUACAUAAUAAAACUAAUUAAAAAGAAUAAGGAAAAUACAAGCAACCAGUCCACACUUUUUAUCAAAGUGCUGGGACAACAGAGGAUUGAGCAUCA
# B15: chr1:163115795:163115796:-_ENSG00000143248_ENST00000313961|hu_hu|FALSE|FALSE (ssRNA)
# RNA: GGGAGUUCUACAGUCCGACGAUCGAGUUAAUAUCCUCAUCUCGAUUACCCUCAUACAUGGCUUAGUUUGAUUCUGUUACUAAAUUCUGUGAAUCAUUAUUUAAUCAAAUCUACUAAAGAUUAGAAAAAAUUCUAGCAAGACUUCAACAGAGGAUUGAGCAUCA
# B16: chr11:70698419:70698420:+_ENSMUSG00000020817_ENSMUST00000076270|mus_mus|motif|central (ssRNA)
# RNA: GGGAGUUCUACAGUCCGACGAUCUUUCAUUAUAGCCUGAAGUGAAGCAACUUCUUCUCUCCAUUGCCUUUUAACUUCAUCGGUAGCUUCUUGCUUAGUAUUCUCAGAGACUGUGGCAAUUGCCUUAAUGUUCUCCAUCUCUGCCAACAGAGGAUUGAGCAUCA
# B17: chr2:75765252:75765253:+_ENSMUSG00000042410_ENSMUST00000047232|mus_mus|FALSE|FALSE (ssRNA)
# RNA: GGGAGUUCUACAGUCCGACGAUCAUUUAAAGCAAUUGUUCCACGUAUUUCAAUAUCCAGUUUUGAAUGUAAAAAUGUCUGCUAAAUGUAAUUAACGUUCUCCUUUUUAUUUAAGAAAUAGGAUAUUUCAAACUUGUGAUUAUGCAACAGAGGAUUGAGCAUCA
# B18: chr2:46850943:46850944:+_ENSG00000119878_ENST00000238892|hu_hu|motif|central (ssRNA)
# RNA: GGGAGUUCUACAGUCCGACGAUCGUAGGCACAGCCCUGGCAGUAAUGAGAACCUGGUUGGUGCACAGAACUUUUACAAAUUCGGCAAGUGGAGAACUUAUUCUUUCCAUAUGGAUCAAAUCUUGCUUUUUUUGAAGUCAAAGCCAACAGAGGAUUGAGCAUCA
# B19: chr4:110743517:110743518:+_ENSG00000109534_ENST00000226796|hu_hu|motif|central (ssRNA)
# RNA: GGGAGUUCUACAGUCCGACGAUCUUUCUCACCUGGAGGUCGAGGUAAAAACCUCUGCAGUGGCAGCAGCUUAUAUGGGUCGGUAUAAAACUUCUGUAGUUUUUUAAAGGAUGAAGCCUUCAUGUUUUCUGACAACUUAACUGACAACAGAGGAUUGAGCAUCA
# B20: chr15:65869917:65869918:+_ENSG00000074696_ENST00000261875|hu_hu|FALSE|FALSE (ssRNA)
# RNA: GGGAGUUCUACAGUCCGACGAUCGCCAUUUUUUAUGUUUGUGCACAGCCUUACAGUUUGGAGGUGUGUUUGGCCUACUCUAAUAUUUCUAGUUUGUCAAAGGCUGUACACUGUUACUGCCAGUUUGACCUACAUACUGUGUUCCAACAGAGGAUUGAGCAUCA
# B21: chr7:56126341:56126342:+_ENSG00000146731_ENST00000540286|hu_mus|hu_hu_hu_mus_True|8_18 (ssRNA)
# RNA: GGGAGUUCUACAGUCCGACGAUCCAUGUUUCUCCUCUUGGCUCUGCGCAGAGCUACGAUCCCUUCUUUCGCAAGGGCAUCUAAGGAAAAGGGGUCAAUCCCCUUUUGAUUAAUAACAACAAAUCCUUUAUCUGAAUCACCACACAACAGAGGAUUGAGCAUCA
# B22: 106644022_106644142_2584_ncRNA_ENSMUSG00000020719_ENSMUST00000133426|mouse|control|control (ssRNA)
# RNA: GGGAGUUCUACAGUCCGACGAUCGUGUGGCAAAAUAGCAAUGUACGGAGUUUUGCACACCACAACAGCCAGACCAAAAAUAAAAAGUUAGACAAUUGUAUUCCCAAGAAGGUACGGGCUGAAAAAAAUACAGUUAAAAUGGUUCAACAGAGGAUUGAGCAUCA
# Target: T1, UNK ZnF1-3 (human, UniProt Q9C0B0 31-174)
# T1 sequence: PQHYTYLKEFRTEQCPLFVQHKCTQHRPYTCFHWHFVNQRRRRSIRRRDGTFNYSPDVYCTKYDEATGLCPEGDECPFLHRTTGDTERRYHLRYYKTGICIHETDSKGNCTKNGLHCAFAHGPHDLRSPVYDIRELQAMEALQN
# Assay: nsRBNS (natural sequence RNA bind-n-seq); RBNS binding buffer (assumed for nsRBNS): 25 mM Tris pH 7.5, 150 mM KCl, 3 mM MgCl2, 0.01% Triton X-100, 500 ug/ml BSA, 20 U/ml SUPERase-In, 4 C; UNK is unkempt and MSI1 is Musashi-1; names of the RNAs are library labels; protein concentration not given here; high values mean tight binding
row,Binder,binding signal
1,B1,1.02 enrichment R
2,B2,0.567 enrichment R
3,B3,1.28 enrichment R
4,B4,2.13 enrichment R
5,B5,1.01 enrichment R
6,B6,1 enrichment R
7,B7,0.618 enrichment R
8,B8,1.07 enrichment R
9,B9,1.38 enrichment R
10,B10,2.09 enrichment R
11,B11,0.743 enrichment R
12,B12,0.859 enrichment R
13,B13,0.664 enrichment R
14,B14,3.17 enrichment R
15,B15,0.817 enrichment R
16,B16,0.447 enrichment R
17,B17,0.444 enrichment R
18,B18,1.2 enrichment R
19,B19,0.853 enrichment R
20,B20,0.413 enrichment R
21,B21,1.06 enrichment R
22,B22,2.54 enrichment R
